Laboratory results published in the supplement of paper PMC3334620.
Whole data set: some 33,000 sequences, median “E-score (-0.5 to 0.5)” near -0.043, cut for the highest 2% near 0.37. The list shows a part of the results.

Target: T1, Upc2 (UniProt Q12151)
T1 sequence: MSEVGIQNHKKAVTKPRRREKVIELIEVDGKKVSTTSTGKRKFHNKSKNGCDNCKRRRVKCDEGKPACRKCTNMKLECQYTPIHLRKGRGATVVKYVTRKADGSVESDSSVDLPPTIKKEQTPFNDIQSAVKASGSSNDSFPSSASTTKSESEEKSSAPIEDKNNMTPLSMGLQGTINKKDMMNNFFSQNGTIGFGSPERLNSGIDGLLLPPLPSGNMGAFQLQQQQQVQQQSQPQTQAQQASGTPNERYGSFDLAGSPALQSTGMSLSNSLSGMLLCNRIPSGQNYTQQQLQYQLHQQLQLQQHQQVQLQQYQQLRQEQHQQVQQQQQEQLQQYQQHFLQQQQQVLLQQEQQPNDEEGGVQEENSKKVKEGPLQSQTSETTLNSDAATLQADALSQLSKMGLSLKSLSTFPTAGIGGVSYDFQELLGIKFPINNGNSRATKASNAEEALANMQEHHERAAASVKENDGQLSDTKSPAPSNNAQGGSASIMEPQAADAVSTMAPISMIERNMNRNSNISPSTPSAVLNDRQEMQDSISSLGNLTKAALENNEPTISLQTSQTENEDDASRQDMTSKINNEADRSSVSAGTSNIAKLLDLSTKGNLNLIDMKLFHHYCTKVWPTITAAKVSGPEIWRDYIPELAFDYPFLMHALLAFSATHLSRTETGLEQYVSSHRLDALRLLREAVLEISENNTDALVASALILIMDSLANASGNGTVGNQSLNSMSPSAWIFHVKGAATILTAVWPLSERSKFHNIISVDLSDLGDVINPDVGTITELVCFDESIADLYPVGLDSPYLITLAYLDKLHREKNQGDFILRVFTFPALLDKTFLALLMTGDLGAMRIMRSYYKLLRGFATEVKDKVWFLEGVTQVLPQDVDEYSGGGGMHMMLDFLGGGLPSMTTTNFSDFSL
Test: PBM E-score (8-mer binding enrichment) (E-score (-0.5 to 0.5)); higher = stronger / more preferred TF binding; most listed sequences are background and not binding sites
Conditions: protein concentration: 200 nM; construct: GST-full length
Experimental: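 Universal 'all 10-mer' protein binding microarrays (Agilent AMADID 015681) probed with GST-tagged S. cerevisiae TFs (full-length or DBD) made by in vitro transcription/translation (PURExpress), about 100-200 nM. Bound TF was detected with fluorescent anti-GST. Each ungapped 8-mer (which stands for itself and its reverse complement) is scored by the PBM enrichment score (E-score), a modified Wilcoxon-Mann-Whitney statistic from -0.5 to +0.5, computed with the Universal PBM Analysis Suite. Scale: above 0.35 generally sequence-specific binding.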

Question: For GCGGAACC, which “PBM E-score” value is on record?
Answer: -0.0453

Question: With ACGCTACA as the sequence, how does the “PBM E-score” value read?
Answer: 0.0651

Question: For TCACAGGA, which “PBM E-score” value is on record?
Answer: -0.175

Question: CCATCTTC was tested. Which “PBM E-score” value did it give?
Answer: -0.0895

Question: Which “PBM E-score” value does the source give for TACATATA here?
Answer: 0.109

Question: For AGACTAGA, which “PBM E-score” value is on record?
Answer: -0.0378

Question: Which “PBM E-score” value does the source give for TGTTGTAA here?
Answer: 0.0709

Question: Which “PBM E-score” value does the source give for GTTTGTTA here?
Answer: 0.188

Question: With AAACTGCG as the sequence, how does the “PBM E-score” value read?
Answer: -0.0684

Question: For ATGCGCGG, which “PBM E-score” value is on record?
Answer: -0.0498

Question: For ATTGATCG, which “PBM E-score” value is on record?
Answer: 0.0802

Question: With ATGGCAGA as the sequence, how does the “PBM E-score” value read?
Answer: 0.0488

Question: Which “PBM E-score” value does the source give for ATGATGCG here?
Answer: -0.0322

Question: How did the “PBM E-score” value turn out when CCGCGCCG was run?
Answer: 0.0343

Question: With CCCGAGTC as the sequence, how does the “PBM E-score” value read?
Answer: -0.0115

Question: CAACGTGA was tested. Which “PBM E-score” value did it give?
Answer: -0.211

Question: For CACACCAC, which “PBM E-score” value is on record?
Answer: -0.00598

Question: How did the “PBM E-score” value turn out when AATCCTTC was run?
Answer: 0.0236

Question: TACGTTCA was tested. Which “PBM E-score” value did it give?
Answer: 0.247

Question: Which “PBM E-score” value does the source give for AGACAGAG here?
Answer: -0.0792

Question: With ATGCAGCC as the sequence, how does the “PBM E-score” value read?
Answer: -0.135

Question: For CGGAATGA, which “PBM E-score” value is on record?
Answer: -0.178

Question: How did the “PBM E-score” value turn out when AAGCGAGG was run?
Answer: 0.296

Question: With CGACACAC as the sequence, how does the “PBM E-score” value read?
Answer: 0.201

Question: Which “PBM E-score” value does the source give for CAAAACCG here?
Answer: 0.0509

Question: Which “PBM E-score” value does the source give for GATCGAGA here?
Answer: 0.117

Question: For GGACTCGA, which “PBM E-score” value is on record?
Answer: -0.149

Question: With TACCACGA as the sequence, how does the “PBM E-score” value read?
Answer: 0.0124

Question: With CGAAGCTC as the sequence, how does the “PBM E-score” value read?
Answer: -0.129

Question: For ATACGGTC, which “PBM E-score” value is on record?
Answer: 0.418

Question: With ATTGCGCA as the sequence, how does the “PBM E-score” value read?
Answer: -0.0745

Question: How did the “PBM E-score” value turn out when ATTGGTTC was run?
Answer: 0.0237

Question: For GACCGCTA, which “PBM E-score” value is on record?
Answer: 0.039

Question: With TAACATAA as the sequence, how does the “PBM E-score” value read?
Answer: 0.113

Question: Which “PBM E-score” value does the source give for CCTTCATC here?
Answer: -0.148

Question: Which “PBM E-score” value does the source give for GGTATAAA here?
Answer: 0.217

Question: GAATGCTA was tested. Which “PBM E-score” value did it give?
Answer: -0.00971

Question: How did the “PBM E-score” value turn out when GGCTTCTA was run?
Answer: -0.117

Question: How did the “PBM E-score” value turn out when ACACCACC was run?
Answer: -0.179

Question: Which “PBM E-score” value does the source give for GCCATTCC here?
Answer: -0.326

Question: With ATTCTGTG as the sequence, how does the “PBM E-score” value read?
Answer: -0.0539

Question: How did the “PBM E-score” value turn out when GATATATA was run?
Answer: 0.075

Question: For CGCTATGC, which “PBM E-score” value is on record?
Answer: -0.0206

Question: How did the “PBM E-score” value turn out when TGCTCTAA was run?
Answer: -0.0995

Question: How did the “PBM E-score” value turn out when AGGCGCAG was run?
Answer: -0.3

Question: With CGGCAACC as the sequence, how does the “PBM E-score” value read?
Answer: -0.0857

Question: AGGGAAAT was tested. Which “PBM E-score” value did it give?
Answer: -0.188

Question: How did the “PBM E-score” value turn out when ACTACTTC was run?
Answer: -0.149

Question: For CAGTCTAC, which “PBM E-score” value is on record?
Answer: -0.11

Question: How did the “PBM E-score” value turn out when GAGTGATA was run?
Answer: 0.16

Question: For AACGCCAA, which “PBM E-score” value is on record?
Answer: 0.198

Question: For ATGGCCGG, which “PBM E-score” value is on record?
Answer: -0.301

Question: Which “PBM E-score” value does the source give for CCCGCTCA here?
Answer: 0.0129

Question: For AGAAGGAG, which “PBM E-score” value is on record?
Answer: -0.238

Question: How did the “PBM E-score” value turn out when AGGATTGA was run?
Answer: -0.212

Question: CTGGGCGC was tested. Which “PBM E-score” value did it give?
Answer: -0.222

Question: How did the “PBM E-score” value turn out when ACCCAATC was run?
Answer: -0.0848

Question: How did the “PBM E-score” value turn out when AGAACCAA was run?
Answer: -0.00064

Question: With GACTGGCA as the sequence, how does the “PBM E-score” value read?
Answer: -0.298

Question: For AGCAATCG, which “PBM E-score” value is on record?
Answer: 0.188

Question: Which “PBM E-score” value does the source give for CAATTGGG here?
Answer: -0.145

Question: For CCTTCGCG, which “PBM E-score” value is on record?
Answer: 0.00088

Question: For CGCATGGA, which “PBM E-score” value is on record?
Answer: -0.148

Question: With CATTATGG as the sequence, how does the “PBM E-score” value read?
Answer: -0.175

Question: Which “PBM E-score” value does the source give for ATCTTGTC here?
Answer: -0.154

Question: For CTCTCTGA, which “PBM E-score” value is on record?
Answer: -0.242

Question: Which “PBM E-score” value does the source give for CTAACCGA here?
Answer: 0.37

Question: For CATTGTTA, which “PBM E-score” value is on record?
Answer: 0.00463

Question: Which “PBM E-score” value does the source give for AGTGTGGC here?
Answer: -0.131

Question: For ATGTGGCC, which “PBM E-score” value is on record?
Answer: -0.247

Question: How did the “PBM E-score” value turn out when CATTCCAG was run?
Answer: -0.289

Question: For GGAACCCA, which “PBM E-score” value is on record?
Answer: -0.0878

Question: GGCCTGGA was tested. Which “PBM E-score” value did it give?
Answer: -0.419

Question: Which “PBM E-score” value does the source give for CACAAGTC here?
Answer: -0.17

Question: With CCGTCCCA as the sequence, how does the “PBM E-score” value read?
Answer: -0.0922

Question: How did the “PBM E-score” value turn out when ATGATAAT was run?
Answer: -0.145

Question: How did the “PBM E-score” value turn out when ATGCTCGA was run?
Answer: -0.134

Question: How did the “PBM E-score” value turn out when GATGGGTA was run?
Answer: 0.108

Question: Which “PBM E-score” value does the source give for AAAGTGGC here?
Answer: -0.0761

Question: For GCTCATAA, which “PBM E-score” value is on record?
Answer: -0.0368

Question: Which “PBM E-score” value does the source give for ATCAGGTC here?
Answer: 0.0789

Question: AATAATCG was tested. Which “PBM E-score” value did it give?
Answer: 0.0287

Question: How did the “PBM E-score” value turn out when AGTGTCCC was run?
Answer: -0.0702

Question: ACGGATAC was tested. Which “PBM E-score” value did it give?
Answer: 0.27

Question: How did the “PBM E-score” value turn out when CTTTGACA was run?
Answer: -0.164

Question: With CACCAGCC as the sequence, how does the “PBM E-score” value read?
Answer: -0.119

Question: How did the “PBM E-score” value turn out when CTTCGCAA was run?
Answer: 0.055

Question: With GGGCCATA as the sequence, how does the “PBM E-score” value read?
Answer: -0.0163

Question: For TATAGCGA, which “PBM E-score” value is on record?
Answer: 0.204

Question: AAACATGA was tested. Which “PBM E-score” value did it give?
Answer: -0.0547

Question: Which “PBM E-score” value does the source give for TCTCTTAA here?
Answer: 0.197

Question: For ACCGGTAG, which “PBM E-score” value is on record?
Answer: -0.109

Question: ACGTTTGA was tested. Which “PBM E-score” value did it give?
Answer: 0.244

Question: For CTTGGCAC, which “PBM E-score” value is on record?
Answer: -0.209
